Laboratory results: PubChem BioAssay AID720709 (National Center for Advancing Translational Sciences (NCATS), 2013)
Screen size: about 360,000 compounds; about 520 (0.14%) were called active. The shares of active, inactive and inconclusive entries below differ from those in the screen. Calls come from the whole dose curve; as a rule, active = well fitted inhibition curve with a large enough effect; inconclusive = small, poorly fitted or top-dose-only effect; inactive = no such curve, though single readings can be large or run the other way. Potencies beside an inconclusive call are fits to weak or partial responses and may not hold up.

These compounds were tested against Rap guanine nucleotide exchange factor 3 (Homo sapiens) (UniProt O95398) (assay: qHTS for Antagonist of cAMP-regulated guanine nucleotide exchange factor 3 (EPAC1): primary screen). Conditions: EPAC1 GEF assay, Rap1b-BODIPY-GDP exchange fluorescence; activity change, negative = inhibition: at 115 µM (top of the series).
Note: nearly all actives have a fitted effect of over 50% in size.
Potency is the fitted concentration of half-maximal effect; tags give direction and shape of the fitted curve.
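Throughout, for activity change, negative = inhibition: plate controls were vehicle for no effect and positive control for full effect.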

Sequence of UniProt O95398 (O95398 whole entry, looked up): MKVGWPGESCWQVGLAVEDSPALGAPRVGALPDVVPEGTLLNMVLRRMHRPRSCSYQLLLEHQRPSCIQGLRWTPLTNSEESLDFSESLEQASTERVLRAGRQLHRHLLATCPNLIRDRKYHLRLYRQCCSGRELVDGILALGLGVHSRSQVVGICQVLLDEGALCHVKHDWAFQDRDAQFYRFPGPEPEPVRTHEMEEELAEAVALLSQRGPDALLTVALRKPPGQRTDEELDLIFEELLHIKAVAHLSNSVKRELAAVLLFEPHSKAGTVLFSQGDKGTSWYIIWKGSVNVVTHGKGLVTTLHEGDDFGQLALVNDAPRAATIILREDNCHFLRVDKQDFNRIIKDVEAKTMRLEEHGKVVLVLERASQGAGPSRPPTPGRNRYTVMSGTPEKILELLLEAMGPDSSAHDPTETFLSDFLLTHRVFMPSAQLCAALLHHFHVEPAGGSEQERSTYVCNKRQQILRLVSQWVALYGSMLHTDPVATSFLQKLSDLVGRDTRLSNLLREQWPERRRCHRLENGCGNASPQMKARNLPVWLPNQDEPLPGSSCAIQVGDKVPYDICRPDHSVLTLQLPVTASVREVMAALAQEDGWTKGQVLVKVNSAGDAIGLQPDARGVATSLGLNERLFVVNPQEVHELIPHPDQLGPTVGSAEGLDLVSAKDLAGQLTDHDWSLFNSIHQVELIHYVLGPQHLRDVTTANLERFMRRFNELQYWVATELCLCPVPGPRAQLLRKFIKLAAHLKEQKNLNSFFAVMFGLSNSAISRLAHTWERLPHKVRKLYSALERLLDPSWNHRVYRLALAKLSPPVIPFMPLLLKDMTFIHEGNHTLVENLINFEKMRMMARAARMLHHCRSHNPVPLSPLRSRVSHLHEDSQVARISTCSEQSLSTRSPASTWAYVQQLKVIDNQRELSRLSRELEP

Potency, inconclusive:
O=C(N/N=C/c1c(O)ccc2ccccc12)c1cccnc1 79.4 µM [inhibitor, partial curve]
COc1ccc(CNC(=O)c2cc(SC)ccc2Cl)cc1OC 89.1 µM [inhibitor, single point]
O=C1Nc2ccccc2/C1=N/N=C/c1cccc(O)c1 100 µM [inhibitor, single point]
COC(=O)c1ccc(-c2ccc(/C=N/N3C(=O)C4C5C=CC(C6CC56)C4C3=O)o2)cc1 (stereo not drawn) 20 µM [inhibitor, partial curve]
CCOC(=O)N(C)c1c(CC)nc2c(OCc3ccc(C(F)(F)F)cc3)cccn12 56.2 µM [inhibitor, partial curve]
CC1=NN(C(N)=S)C(=O)C1N=Nc1c(Br)cc(Br)cc1Br (stereo not drawn) 79.4 µM [inhibitor, single point]
O=C(Nc1ccc(/C=C/c2nc3ccccc3o2)cc1)c1cccc(C(F)(F)F)c1 39.8 µM [inhibitor, single point]
O=C(C[C@@H]1C/C=C/CCCC(=O)O[C@H](c2ccccc2)CNC1=O)N[C@H](CO)Cc1ccccc1 89.1 µM [inhibitor, single point]
Cc1ccc(NC(=O)CN2C(=O)S/C(=C/c3ccc(-c4cc(C(=O)O)ccc4C)o3)C2=O)cc1C 39.8 µM [inhibitor, full curve, poor fit]
CCOc1ccc(N(C)S(=O)(=O)c2ccc(-c3ccc(=O)[nH]n3)s2)cc1 31.6 µM [inhibitor, partial curve]
O=[N+]([O-])c1ccc(-n2nnnc2-c2ccccc2)c([N+](=O)[O-])c1 89.1 µM [inhibitor, single point]
Cc1ccc(NC(=O)CN2C(=O)CSc3ccc(S(=O)(=O)N4CCCCC4)cc32)cc1 44.7 µM [inhibitor, full curve, poor fit]
CC(Sc1ccc(Cl)cc1)C(=O)NNC(=O)c1csc(N2CCOCC2)n1 (stereo not drawn) 31.6 µM [inhibitor, partial curve]
COc1ccc(Cl)cc1NC(=O)CN(C)C(=O)c1cn2ccccc2n1 100 µM [inhibitor, single point]
O=c1cc(-c2c(O)c3ccccc3n(Cc3ccccc3)c2=O)[nH][nH]1 89.1 µM [inhibitor, single point]
Nc1nonc1C(=O)NCCN=Cc1cc(Cc2ccccc2)cc(Br)c1O 56.2 µM [inhibitor, partial curve]
CCOc1cc(/C=C2\C(=O)NN(c3ccccc3)C2=O)cc([N+](=O)[O-])c1O 89.1 µM [inhibitor, single point]
Cc1cccc(N(Cc2ccccc2)C(=O)c2ccccc2S(C)(=O)=O)c1 35.5 µM [inhibitor, partial curve]
COc1cccc(-c2nc(CS(=O)(=O)CC(=O)N3CCN(C)CC3)c(C)o2)c1 35.5 µM [inhibitor, single point]
CC12CCC(C(=O)N3CCOCC3)([C@H](Br)C1=O)C2(C)C (stereo partly drawn) 100 µM [inhibitor, single point]
CCOc1cc(/C=C2/C(=N)N3N=C(C)SC3=NC2=O)ccc1OS(=O)(=O)c1ccc(C)cc1 100 µM [inhibitor, single point]
O=c1oc2c(-c3cccc(F)c3)cc(O)cc2s1 3.55 µM [inhibitor, full curve, poor fit]
COc1ccc(CC(=O)N2CCN(c3ccc(F)cc3)CC2)cc1 25.1 µM [inhibitor, partial curve]
COc1ccc(/C=C/C(=O)NCC(=O)N/N=C/c2ccc(OC)cc2)cc1 56.2 µM [inhibitor, partial curve]
CCS(=O)(=O)N1CCC(C(=O)Oc2ccccc2Br)CC1 79.4 µM [inhibitor, single point]
CCOC(=O)COc1nc(-c2ccco2)cc(-c2ccco2)c1C#N 89.1 µM [inhibitor, single point]
O=C(c1ccc([N+](=O)[O-])cc1)N1C=CC(C(F)(F)F)=NCC1 50.1 µM [inhibitor, full curve, poor fit]
CCC1(C)CC(C#N)(C#N)C(=O)NC1=O (stereo not drawn) 70.8 µM [inhibitor, single point]
COc1ccc2cc(C(C)C(=O)N3CCC(C)CC3)ccc2c1 (stereo not drawn) 63.1 µM [inhibitor, partial curve]
O=C(N/N=C/c1cccc(Cl)c1)C1CCCC1 31.6 µM [inhibitor, single point]
CC1(c2nnc(Cc3ccccc3)o2)CC(c2ccc(Cl)cc2)=NO1 (stereo not drawn) 14.1 µM [inhibitor, full curve]
Cc1csc(NC(=O)c2ccco2)c1C(=O)c1ccccc1 2.82 µM [inhibitor, full curve, poor fit]
NC1=NC(=O)C(CC(=O)NCc2ccccc2)S1 (stereo not drawn) 100 µM [inhibitor, partial curve]
O=C(NCc1ccco1)c1cccc2c1C(=O)c1ccc(/C=C/c3ccccc3)cc1S2(=O)=O 56.2 µM [inhibitor, partial curve]
O=C(c1ccoc1)N1CCC(CO)(CCc2ccccc2)CC1 39.8 µM [inhibitor, partial curve]
COc1cccc(/C=C2\SC(=S)N(C(C(=O)O)c3ccccc3)C2=O)c1OC (stereo not drawn) 25.1 µM [inhibitor, full curve, poor fit]
COc1ccccc1CCNC(=O)Cn1c(=O)oc2ccccc21 17.8 µM [inhibitor, full curve, poor fit]
CC(=O)c1cccc(NC(=O)CN(C)S(=O)(=O)c2cccc3nsnc23)c1 25.1 µM [inhibitor, full curve]
Cc1cccn2cc(CNS(=O)(=O)c3cccc(F)c3)nc12 25.1 µM [inhibitor, single point]
COc1ccc(NC(=O)c2cc3cccc(OC)c3oc2=Nc2ccc(C(=O)O)cc2)cc1OC 79.4 µM [inhibitor, single point]
CCOc1nc(N(C)C)nc(-n2nnc(C(C)=O)c2C)n1 89.1 µM [inhibitor, single point]
Cc1cc(/C=C2\SC(=S)NC2=O)c(C)n1-c1cccc(O)c1 100 µM [inhibitor, partial curve]
O=C(CN1CCN(S(=O)(=O)N2CCOCC2)CC1)Nc1ccc(Cl)c(Cl)c1 25.1 µM [inhibitor, full curve, poor fit]
O=C(Nc1ccc2nsnc2c1)C1CC1 15.8 µM [inhibitor, partial curve]
O=C(CN1CCc2cc3c(cc2C1)OCCCO3)Nc1cccc(Br)c1 100 µM [inhibitor, partial curve]

Potency, inactive:
CO[C@H]1CN(C)C(=O)c2ccc(NC(=O)C3CCC3)cc2OC[C@H](C)N(Cc2ccccn2)C[C@@H]1C
CCC[C@@H]1CCCO[C@@](C(=O)NCc2cc(C)n(C)n2)(C(F)(F)F)C1
CCNC(=O)NC(=O)C(C)Sc1nc2cc(C(=O)OC)ccc2c(=O)n1-c1ccccc1 (stereo not drawn)
O=C1C2C3C=CC(C3)C2C(=O)N1Cc1ccccc1 (stereo not drawn)
CCc1c(-c2ccccc2)ncn1Cc1cccc(-c2ccccc2)c1
C[n+]1c(-c2ccccc2)cc2c(=Cc3ccc([N+](=O)[O-])cc3)c3ccccc3n21
Clc1cccc(CN2CCSCC2)c1
CCOC(=O)c1c(NC(=O)c2nn(CC)cc2Br)sc(C)c1C
Cc1cc(C)n2nc(SCc3ccccc3C(=O)O)nc2n1
N#CC1=C(N)N2C(=C(C#N)C1c1cccc(Br)c1)Nc1ccccc12 (stereo not drawn)
OCCC1CN(Cc2nc3ccccc3s2)CCN1CCc1ccccc1 (stereo not drawn)
OC[C@@H]1CN(Cc2ccc(F)cc2)C[C@H](n2cnc3c(N4CCOCC4)ncnc32)O1
CC1=C(C(=O)Nc2cccc(F)c2)C(c2ccsc2)C2=C(CC(C)(C)CC2=O)N1 (stereo not drawn)
COc1ccc(-c2nc(N)nc(C(F)(F)F)c2-c2csc(C)n2)c(O)c1
O=C(Nc1cccc(NC(=O)c2cccc([N+](=O)[O-])c2)n1)c1cccc([N+](=O)[O-])c1
O=C(NN1C(=O)C2C3C=CC(C4CC34)C2C1=O)c1ccc(Cl)c(Cl)c1 (stereo not drawn)
CN1CCN(C(=O)/C=C\c2ccc(Cl)cc2)CC1
COc1ccccc1N1CCN(CCCCOc2c(OC)cccc2OC)CC1
CCOC(=O)c1c2c(n(Cc3ccccc3)c1C)C(=O)C(=O)c1ccccc1-2
Cc1ccc(S(=O)(=O)N2CCN(c3ccnc4cc(Cl)ccc34)CC2)cc1C

Activity change, negative = inhibition, inconclusive:
CCOC(=O)c1c(NC(=O)C(NCCN(C)C)c2ccccc2)sc2c1CCCC2 (stereo not drawn) -18.7% [inhibitor]
COc1ccccc1C1OCC(C)(C)CO1 -3.14% [inhibitor]
CC(C)N(C(=O)c1ccc(Cc2cn(C)c3ccccc23)nc1)C(C)C -20.5% [inhibitor]
